{"source": "ChEMBL document CHEMBL4888484", "about": "“Replenishing the malaria drug discovery pipeline: Screening and hit evaluation of the MMV Hit Generation Library 1 (HGL1) against asexual blood stage Plasmodium falciparum ,using a nano luciferase reporter read-out” (2022)", "note": "Among all 150,000 compounds or so, about 540 (0.36%) showed an effect of 50% or more. The list shows a part of the results."}
{"test_system": "Plasmodium falciparum", "test": "Primary screen in NF54 nanoGlo assay, in single point, at 2uM, 72h; a lower Z score goes with more inhibition", "type": "functional, Erythrocyte", "conditions": "timepoint 72 hour", "units": {"% Inhibition": "%"}}
{"smiles": "Cc1cc(CN(CC(=O)O)Cc2ccc(F)c(F)c2)on1", "% Inhibition": 6, "Z score": -1.17}
{"smiles": "Cc1cnn(Cc2nnnn2-c2ccccc2)c1", "% Inhibition": -7, "Z score": 1.26}
{"smiles": "CCc1cc(N2CCOC[C@](O)(CN3CCCC3)C2)nc(N2CCCC2)n1", "% Inhibition": 3, "Z score": -0.37}
{"smiles": "Cc1onc(C(=O)N[C@@H]2COCC[C@@H]2OCC2CCC2)c1CO", "% Inhibition": -1, "Z score": 0.11}
{"smiles": "CC(C)N(CCO)c1ccc(-c2nc(-c3ccccc3F)no2)cn1", "% Inhibition": -2, "Z score": 0.35}
{"smiles": "CS(=O)(=O)NCCC(=O)N1CC[C@H]1c1ccc(F)cc1", "% Inhibition": -7, "Z score": 0.91}
{"smiles": "O=C(NCC1CCCC1O)Nc1ccccn1", "note": "(stereo not given)", "% Inhibition": 6, "Z score": -0.94}
{"smiles": "CC(=O)Nc1c(C)cc(NCc2ccc(-c3cccc(F)c3C)o2)cc1C", "% Inhibition": 3, "Z score": -0.56}
{"smiles": "CCc1cccc(OCCN(C)[C@H]2CN(Cc3ncc[nH]3)C[C@@H]2O)c1", "% Inhibition": -6, "Z score": 0.75}
{"smiles": "O=C(O)[C@@H]1CCCN1S(=O)(=O)c1ccc(Br)c2ccccc12", "% Inhibition": -10, "Z score": 1.27}
{"smiles": "Cc1nscc1-c1nc(C2(c3ccncc3)CCC2)no1", "% Inhibition": 2, "Z score": -0.28}
{"smiles": "C[C@@H](CC(=O)N1CCN(c2ncc[nH]2)CC1)c1cnn(C)c1", "% Inhibition": -1, "Z score": 0.11}
{"smiles": "CCN(CC)c1ccc(NC(=O)CCn2ccn3nc4c(c3c2=O)CCCC4)c(C)c1", "% Inhibition": 7, "Z score": -0.63}
{"smiles": "CCOC(=O)N1CCC(N2C[C@@]34C=C[C@@H](O3)[C@H](C(=O)Nc3ccc(C)cc3)[C@@H]4C2=O)CC1", "% Inhibition": -13, "Z score": 1.96}
{"smiles": "CCc1cc(CN2CCC3(CC2)CCN(Cc2ccoc2)C[C@@H]3CO)[nH]n1", "% Inhibition": -6, "Z score": 1.1}
{"smiles": "CCN1CCC(NC(=O)Cc2cn(-c3ccccc3)nc2-c2ccc(Cl)cc2)CC1", "% Inhibition": 1, "Z score": -0.15}
{"smiles": "O=C(Nc1c(-c2ccc3c(c2)OCO3)n[nH]c1C1CC1)c1ccccc1F", "% Inhibition": -2, "Z score": 0.32}
{"smiles": "c1cc(-c2noc(C3CCN(c4ccc5nncn5n4)CC3)n2)ccn1", "% Inhibition": 10, "Z score": -1.14}
{"smiles": "Cc1ccc(-n2ccnc2)c(C(=O)N2CCN(CC3CC3)CC2)c1", "% Inhibition": -18, "Z score": 1.49}
{"smiles": "COC(C)c1cccc(NC(=O)NC(C)C2CCC(F)(F)CC2)c1", "note": "(stereo not given)", "% Inhibition": 3, "Z score": -0.37}
{"smiles": "Cc1nccn1C[C@H]1CCCN(Cc2nc(C)n3ccccc23)C1", "% Inhibition": 7, "Z score": -0.92}
{"smiles": "CC1(C)CC(NC(=O)c2cc(C(C)(C)C)nc(=O)[nH]2)CC(C)(C)C1", "% Inhibition": -9, "Z score": 1.5}
{"smiles": "C[C@]1(O)CCN(Cc2cc(F)ccc2C(F)(F)F)C[C@@H]1O", "% Inhibition": -9, "Z score": 1.85}
{"smiles": "Cc1cnc2c(C(=O)N3CCC(CN4CCNC4=O)CC3)cnn2c1", "% Inhibition": -7, "Z score": 0.92}
{"smiles": "c1ccc(CCCN2CCC[C@H](CN3CCOCC3)C2)cc1", "% Inhibition": -12, "Z score": 1}
{"smiles": "Cc1cc(-c2nc(C3CCOCC3)nn2Cc2ccccc2C)c(C)o1", "% Inhibition": -9, "Z score": 0.99}
{"smiles": "Cc1cc2nc(-c3cc4n(n3)CCN(C(=O)[C@@H]3CC=CCC3)C4)[nH]c2cc1C", "% Inhibition": -6, "Z score": 0.76}
{"smiles": "CCOC(=O)CNC(=O)N1CCN(Cc2nc3cc(-c4ccccc4)ccc3o2)CC1", "% Inhibition": -15, "Z score": 1.94}
{"smiles": "C[C@H](O)CN(C(=O)Nc1ccccc1N(C)C)C1CCCCC1", "% Inhibition": -11, "Z score": 1.41}
{"smiles": "CCOC(=O)N1CCC2(CC1)N=C(c1ccc(OCC)cc1)C[C@@H](c1cc(Cl)ccc1O)N2", "% Inhibition": -6, "Z score": 0.71}
{"smiles": "O=C(Nc1nnc(Cc2ccc(F)cc2)o1)c1sc2ccccc2c1Cl", "% Inhibition": -2, "Z score": 0.27}
{"smiles": "Nc1nnc(CCNC(=O)c2onc3ccccc23)s1", "% Inhibition": 9, "Z score": -1.88}
{"smiles": "COC(=O)C1CCCC1C(=O)OCc1scnc1C", "note": "(stereo not given)", "% Inhibition": -1, "Z score": 0.15}
{"smiles": "COc1cccc(CN2CCC[C@@]3(CCN(Cc4ccc(C)o4)C3)C2=O)c1", "% Inhibition": -9, "Z score": 1.35}
{"smiles": "O=C(C[C@H]1C(=O)NCCN1Cc1ccc2ccccc2c1)NC1CCCC1", "% Inhibition": -3, "Z score": 0.63}
{"smiles": "COc1ccnc(Cn2c(=O)ccc3ccccc32)c1", "% Inhibition": -1, "Z score": 0.13}
{"smiles": "CC(C)[C@@H](NC(=O)c1ccc(Cl)s1)C(=O)NCc1nnc[nH]1", "% Inhibition": -8, "Z score": 0.94}
{"smiles": "CC1(C)CS(=O)(=O)N(c2cccc(C(=O)Nc3ccc4c(c3)OCCO4)c2)C1=O", "% Inhibition": -9, "Z score": 1.12}
{"smiles": "COc1cc(C(=O)NC2CCN(C)C2c2ccc(F)cc2)on1", "note": "(stereo not given)", "% Inhibition": -2, "Z score": 0.18}
{"smiles": "O=C(NCC1CCCCC1)c1ccoc1", "% Inhibition": 10, "Z score": -1.35}
{"smiles": "Cc1cc(N2CCC(C)CC2)n2nc(CN3CCN(C(C)C)CC3)nc2n1", "% Inhibition": 7, "Z score": -0.96}
{"smiles": "CCc1nc(N2CCN(C(C)C)[C@@H](CC)C2)no1", "% Inhibition": -15, "Z score": 1.89}
{"smiles": "Cc1cc(C)cc(NC(=O)[C@@H]2CCN(S(C)(=O)=O)c3ccccc3O2)c1", "% Inhibition": 9, "Z score": -1.15}
{"smiles": "O=C(NCc1ncc(C(F)(F)F)cn1)c1ccc(O)nc1", "% Inhibition": -7, "Z score": 0.74}
{"smiles": "Cc1nn(-c2nc(-c3ccc(F)cc3)cs2)c(C)c1CC(=O)Nc1ccc(F)cc1", "% Inhibition": -1, "Z score": 0.14}
{"smiles": "CC(C)CNC(=O)/C(=C/c1cccc(Oc2ccccc2)c1)NC(=O)c1ccc(Cl)cc1", "% Inhibition": 0, "Z score": 0.02}
{"smiles": "CCn1c2ccccc2c2ccc(N)nc21", "% Inhibition": 4, "Z score": -0.71}
{"smiles": "Cc1ccc2nc(COc3cccc(C(=O)N4CCC[C@H]4C(C)(C)O)c3)cn2c1", "% Inhibition": -7, "Z score": 0.95}
{"smiles": "CC1(C)COc2cc(-c3ccc(S(=O)(=O)NCCO)cc3)ccc21", "% Inhibition": -5, "Z score": 0.86}
{"smiles": "O=S(=O)(C[C@H]1CCCO1)NCCn1cnnc1C1CC1", "% Inhibition": 0, "Z score": -0.05}
{"smiles": "COc1ccc(Cc2nc(C3CCC3)n(-c3cccnc3)n2)cc1", "% Inhibition": -2, "Z score": 0.3}
{"smiles": "O=C(Nc1ccc(C(F)(F)F)cc1)N1CCC[C@H](Nc2ccc3c(c2)OCCO3)C1", "% Inhibition": 7, "Z score": -0.78}
{"smiles": "O=C(NCCc1nccs1)N1CCC([C@@H]2CCCO2)CC1", "% Inhibition": -5, "Z score": 0.62}
{"smiles": "CCc1ccc(C(=O)N[C@H](c2cccc(C)n2)C2CC2)s1", "% Inhibition": -10, "Z score": 1.48}
{"smiles": "Cc1noc(C2CN(Cc3ccc(Cl)cc3Cl)C2)n1", "% Inhibition": -4, "Z score": 0.83}
{"smiles": "CC(C)=CCN1C[C@@H]2CC[C@H]1CN(C(=O)c1c[nH]c3ncnn3c1=O)C2", "% Inhibition": -18, "Z score": 1.74}
{"smiles": "O=C(NCc1nnc2n1CCC2)c1cc(-c2ccsc2)n[nH]1", "% Inhibition": -22, "Z score": 2.68}
{"smiles": "O=C(c1ccsc1)N1CCN(c2ccccn2)CC1", "% Inhibition": 0, "Z score": -0.03}
{"smiles": "Cc1ccnc2nc(C(=O)N3CCOC[C@@]3(C)C3CC3)nn12", "% Inhibition": -5, "Z score": 0.78}
{"smiles": "CS(=O)(=O)C[C@H](O)c1cc2n(n1)CCN(Cc1nc3ccccc3[nH]1)C2", "% Inhibition": 1, "Z score": -0.19}
{"smiles": "Cn1cc(Br)cc1C(=O)NCCCO", "% Inhibition": -8, "Z score": 1.29}
{"smiles": "Cn1cccc1C(=O)C(=O)NCc1ccco1", "% Inhibition": -14, "Z score": 1.33}
{"smiles": "CCc1nn(C)c2c(=O)n(Cc3ccc4nonc4c3)cnc12", "% Inhibition": 0, "Z score": 0.03}
{"smiles": "CN1c2cccnc2CN(Cc2cccnc2)CC[C@H]1CO", "% Inhibition": 25, "Z score": -2.81}
{"smiles": "O=C(Cn1[nH]c2ccccc2c1=O)NCCOCCO", "% Inhibition": -11, "Z score": 1.82}
{"smiles": "Cc1nnc(NC(=O)C2(CF)CCC2)s1", "% Inhibition": -5, "Z score": 0.65}
{"smiles": "Cc1cccc2c1O[C@H](c1nc(C3CCOCC3)no1)C2", "% Inhibition": -3, "Z score": 0.33}
{"smiles": "CCCS(=O)(=O)NCCn1nc(-c2ccncc2)c2c1CCCC2", "% Inhibition": -4, "Z score": 0.51}
{"smiles": "O=C(Nc1ccc2c(c1)OCO2)c1cnc2ccccc2n1", "% Inhibition": -13, "Z score": 1.72}
{"smiles": "O=C(c1ccc(-c2ccco2)[nH]c1=O)N1CCC(n2cccn2)CC1", "% Inhibition": 0, "Z score": -0.02}
{"smiles": "CC(C)n1ccnc1CN1CC[C@H](CNC(=O)c2ccsc2)C1", "% Inhibition": -11, "Z score": 1.88}
{"smiles": "CC(C)CNC(=O)c1[nH]cnc1C(=O)N1CCC(Cc2ccccc2)CC1", "% Inhibition": 31, "Z score": -3.65}
{"smiles": "FC(F)(F)c1nc(NCCN2CCCOCC2)c2nc[nH]c2n1", "% Inhibition": -14, "Z score": 2.11}
{"smiles": "Cc1nnsc1C(=O)NC[C@H](O)Cn1ccccc1=O", "% Inhibition": 23, "Z score": -2.94}
{"smiles": "Cn1nnnc1CCNC(=O)N1CCC2(C=Cc3ccccc3O2)CC1", "% Inhibition": -10, "Z score": 0.93}
{"smiles": "CCCc1nc2nc(C)nn2c(O)c1NC(=O)Nc1cccc(F)c1", "% Inhibition": 0, "Z score": -0.01}
{"smiles": "OC1(c2ccc(-c3cnc4c(c3)CCCO4)cc2)CCC1", "% Inhibition": -20, "Z score": 3.25}
{"smiles": "CC(C)c1nc(C2CN(C(=O)Nc3cc(F)cc(F)c3)C2)n(C)n1", "% Inhibition": -6, "Z score": 0.96}
{"smiles": "C[C@@H](O)CNC(=O)NC1CCC(Cc2ccccc2)C1", "note": "(stereo not given in full)", "% Inhibition": -10, "Z score": 1.05}
{"smiles": "Cc1cc(C)n(-c2ccc(C(=O)N3CCCC[C@H]3c3nc(C)no3)cc2)n1", "% Inhibition": -5, "Z score": 0.92}
{"smiles": "COc1cccc(Cn2cccc2CN(Cc2ccccc2)C(=O)CN(CC(C)C)C(=O)c2ccc(C(C)(C)C)cc2)c1", "% Inhibition": -23, "Z score": 3.1}
{"smiles": "Cc1oc(-c2ccc3ccccc3c2)nc1CN1CCC2(CC1)CNC(=O)C2", "% Inhibition": -9, "Z score": 1.04}
{"smiles": "COc1ccc(OC)c(Cc2nnc(CCC(=O)NC3CCCCC3)o2)c1", "% Inhibition": -10, "Z score": 1.38}
{"smiles": "C#CC(C)NC(=O)[C@@H]1CCC[C@@H]1CNC(=O)OC(C)(C)C", "note": "(stereo not given in full)", "% Inhibition": -10, "Z score": 1.99}
{"smiles": "COc1ccc(-n2nc(C3CCCC3)nc2CCS(C)(=O)=O)cc1", "% Inhibition": 4, "Z score": -0.82}
